# Data published in ChEMBL document CHEMBL4888484, “Replenishing the malaria drug discovery pipeline: Screening and hit evaluation of the MMV Hit Generation Library 1 (HGL1) against asexual blood stage Plasmodium falciparum ,using a nano luciferase reporter read-out” (2022).
# The whole screen tested about 150,000 compounds, of which about 540 (0.36%) showed an effect of 50% or more. The list shows a part of the results.
# System: Plasmodium falciparum
# Experiment: Primary screen in NF54 nanoGlo assay, in single point, at 2uM, 72h; a lower Z score goes with more inhibition
# Type: functional, Erythrocyte
# Settings: timepoint 72 hour
Structure (SMILES),% Inhibition,Z score
C[C@@H](c1cccc(O)c1)N(C)Cc1cncn1C,-8%,1.18
CCc1c[nH]c2ncnc(NCc3ncccc3NC)c12,-9%,1.47
C[C@H](NCCc1nnc2n1CCC2)c1cccc(OC(F)F)c1,-11%,0.98
O=C(Cc1ccccc1)N(c1ccc2oc(=O)sc2c1)S(=O)(=O)c1cc(Cl)ccc1Cl,-24%,3.01
Cc1cnc(N2CCC(Oc3ccnc(C(N)=O)c3)CC2)s1,0%,0.04
Cc1cc(C)n([C@@H](CNS(=O)(=O)Cc2ccccc2Cl)c2ccsc2)n1,-6%,1.2
COc1nn(C)cc1C(=O)N[C@@H](C)Cc1ccco1,-3%,0.56
Cc1ccc(Oc2cnn(-c3ccc(F)cc3)c(=O)c2Nc2cccc(C(=O)N(C)Cc3ccccc3)c2)cc1,-1%,0.25
COc1cc(C)sc1C(=O)N1CCC[C@@H]1CC(=O)O,-1%,0.13
CON(C)C1CCN(C(=O)CCc2cccc(OC(F)F)c2)CC1,-7%,0.75
CN(C)[C@H]1CCN(CCC(=O)NCc2cccc(Cl)c2)C1,0%,0.08
CC(C)Oc1cccc(CNC(=O)N2CCC3(CCC(=O)N(C)CC3)CC2)c1,-1%,0.06
CC(C)N1CCN(S(=O)(=O)c2ccc3c(c2)CCC(=O)N3)CC1,1%,-0.2
FC(F)Oc1cccc(-c2cc(C(F)(F)F)c3c(-c4ccc5c(c4)OCO5)noc3n2)c1,35%,-0.79
CN(C)C(=O)c1ccc2c(c1)N(CC(=O)NCc1ccc3c(c1)OCO3)C(=O)CO2,0%,0.03
Cc1nc(C[C@@H]2NC(=O)NC2=O)n(C(C)(C)C)n1,2%,-0.37
Cc1cc([C@@H](O)CNC(=O)c2cncc(Br)c2)c(C)o1,-7%,1.09
CN(Cc1ccc(F)cc1)C(=O)Cn1ncn(C)c1=O,-6%,0.65
O=S(=O)(Cc1ccccc1)N1CCC(Cc2ccn[nH]2)CC1,-12%,1.53
Cc1nc(-c2cccnc2)c2ccccc2n1,-16%,2.3
CCCCN(CC)C(=O)Nc1cnns1,-9%,0.89
Cc1cc(NC(=O)NCCC(=O)Nc2ccccc2)ccn1,-6%,0.96
NC(=O)c1cc(CCCOCc2ccccc2)ccc1F,-1%,0.19
CS(=O)(=O)N1CC[C@@H](C(=O)Nc2ccc3c(c2)OCO3)Oc2ccccc21,-3%,0.54
